This passage reports survival results from PubChem BioAssay AID463173 (ICCB-Longwood Screening Facility, Harvard Medical School, 2010).

In all, about 52,000 compounds went through this assay and about 4,300 (8.3%) were called active. No stated cut-off is given here; in the data, active means survival mostly below about 52% (no sharp cut-off); inactive means mostly above about 56%. Some of the results follow.

In the assay the test system is DeltatarO mutant. Put plainly: S. aureus survival, RN4220 and DeltatarO strains – OD600, teichoic acid synthesis inhibitors, primary screen (AID 463173). The conditions noted are these: S. aureus RN4220 wild type/DeltatarO growth, OD600, 18 h, hits give low values, screened at 18.75 µg/mL (by protocol).
For the molecule `COc1ccc(-n2c(=O)c3c(C)c(C)sc3n(CC(=O)NCc3ccc(C)cc3)c2=O)c(OC)c1`, the survival is inactive: 78%.

In the case of `CS(=O)(=O)c1oc(-c2ccc(F)cc2)nc1S(=O)(=O)c1ccc(Cl)cc1`, the survival was active: -5%.

With `O=C(CSc1nc2c(sc3ccccc32)c(=O)n1CCCC(=O)NC1CCCC1)Nc1ccc(F)cc1`, the survival is inactive: 85%.

For the molecule `CCOC(=O)C1CCN(C(=O)CN2c3ccc(C(C)C)cc3-c3ccccc3S2(=O)=O)CC1`, the survival is inactive: 101%.

Regarding `CCOc1ccc(OC(=O)c2cn(-c3cccc(OC)c3)c(=O)c3ccccc23)cc1`, the survival was inactive: 74%.

In the case of `COc1cc(C2NC(=O)N(C)C3=C2C(=O)N(c2cccc(Cl)c2)C3)ccc1O` (configuration not stated), the survival was inactive: 77%.

In the case of `CCOC(=O)c1c(NC(C)=O)c2c3c(sc2n1Cc1ccc(Cl)cc1)CCCC3`, the survival is inactive: 95%.

Consider `Cc1ccc(NC(=O)c2ccc3oc(=O)c(S(=O)(=O)c4ccccc4)cc3c2)cc1C`, for which the survival is inactive: 85%.

As for `Cc1ccc(NC(=O)Cn2nnc(-c3nc(-c4ccncc4)no3)c2N)c(C)c1`, the survival is inactive: 92%.

In the case of `CC(SCc1ccccc1)C(=O)NCc1ccccn1` (configuration not stated), the survival is inactive: 77%.

For `COc1ccccc1NC(=O)C1=C(C)Nc2nc(SCc3ccc(Cl)cc3)nn2C1c1ccccc1Cl` (configuration not stated), the survival is inactive: 78%.

Consider `Cc1cccc(C)c1NC(=O)CSc1nc2ncccc2o1`, for which the survival is inactive: 79%.

In the case of `Cc1ccc(S(=O)(=O)NCC(c2ccc(N(C)C)cc2)N2CCc3ccccc32)cc1C` (configuration not stated), the survival is inactive: 131%.

With `CC(=O)N1CCc2cc(CNC(=O)Nc3cc(Cl)ccc3C)ccc21`, the survival is inactive: 86%.

Take `COc1ccc(Cn2c(CCC(=O)Nc3cccc(OC)c3)nc3cccnc32)cc1`: the survival is inactive: 68%.

Turning to `CCc1ccc(CNC(=O)C2CCN(c3nc4ccccc4nc3C(F)(F)F)CC2)cc1`, the survival is inactive: 74%.

Consider `COC(=O)Cc1c(C)c2cc3c(c(C)c2oc1=O)OCN(CCc1ccccc1F)C3`, for which the survival was inactive: 47%.

In the case of `CCN1C(=O)c2ccccc2Sc2ccc(NC(=O)Nc3ccccc3OC)cc21`, the survival is inactive: 61%.

In the case of `Cc1ccc(NC(=O)c2c(NC(=O)Cc3ccccc3)sc3c2CCC3)cc1`, the survival is active: 24%.

With `O=C(O)c1ccc(NC(=O)C2C3C=CC(C3)C2C(=O)O)cc1` (configuration not stated), the survival was inactive: 95%.

Turning to `COc1ccccc1CNC(=O)CCC1N=C2c3ccccc3N=C(SCC(N)=O)N2C1=O` (configuration not stated), the survival is inactive: 95%.

For `CC1CCCCN1CCCNC(=O)c1[nH]c2ccccc2c1Sc1ccc(Cl)cc1` (configuration not stated), the survival was active: 1%.

For `Fc1ccccc1-n1ncc2c1ncn1nc(-c3ccccc3Cl)nc21`, the survival is inactive: 79%.

For the molecule `Cc1cccc(CNC(=O)C(=O)Nc2ccccc2C)c1`, the survival is inactive: 70%.

For `Cc1ccc(CNC(=O)c2ccc(CSCc3ccccc3Cl)o2)cc1`, the survival is inactive: 58%.

`Cc1cc2c(cc1S(=O)(=O)CCC(=O)N1CCCC(C)C1)OCC(=O)N2` (configuration not stated): the survival was inactive: 76%.

Consider `CCCCN(CCCNC(=O)c1ccc(Sc2ccc(Cl)cc2)c(NC(C)=O)c1)c1ccccc1`, for which the survival was inactive: 89%.

`Cc1ccc(NC(=O)CSC2=Nc3ccccc3C3=NC(Cc4ccccc4)C(=O)N23)cc1C` (configuration not stated): the survival is inactive: 74%.

As for `C=CCc1c(NCCO)nc(C)[nH]c1=O`, the survival was inactive: 73%.

As for `Cc1ccc(-n2ncc(C(=O)NCCN3CCOCC3)c2C2CCN(C(=O)OC(C)(C)C)CC2)c(C)c1`, the survival is active: 37%.

`COCCn1c(CCC(=O)Nc2ccc(C)c(Cl)c2)nc2cccnc21`: the survival is inactive: 84%.

Regarding `Cc1c(Cl)cccc1NC(=O)Cn1cc(C(=O)C2CCCCC2)c2ccccc21`, the survival is inactive: 94%.

In the case of `CCSc1ncc(Cl)c(C(=O)Nc2ccc(S(=O)(=O)N3CCC(C)CC3)cc2)n1`, the survival is inactive: 68%.

Consider `Clc1ccc2nc(NCc3ccccc3)c3nncn3c2c1`, for which the survival is inactive: 96%.

For `COc1ccc2cc(-c3nc(Cl)c4c5c(sc4n3)CCCC5)c(=O)oc2c1`, the survival is inactive: 76%.

Regarding `COc1ccc(NC(=O)Cn2c(=O)n(Cc3ccco3)c(=O)c3cc(OC)c(OC)cc32)cc1`, the survival was inactive: 80%.

`CN(C)c1ccc(-c2nc3cnccn3c2Nc2cccc(C(F)(F)F)c2)cc1`: the survival is inactive: 83%.

With `COc1cccc(CNc2nccn(-c3cc(C)cc(C)c3)c2=O)c1`, the survival was inactive: 91%.

As for `CCNS(=O)(=O)c1ccc(S(=O)(=O)N(Cc2ccccn2)C2CCCCC2)cc1`, the survival is inactive: 76%.

For `CC(NC(=O)c1c2c(nc3ccccc13)C(=O)N(C1CCCCC1)C2)c1ccccc1` (configuration not stated), the survival was inactive: 69%.

With `Cc1ccc(CNC(=O)Cn2c(=O)ccc3cc(S(=O)(=O)N4CCCC4)ccc32)cc1`, the survival is inactive: 92%.

Regarding `CCOc1ccc(S(=O)(=O)c2cn(C)c3ccccc3c2=O)cc1`, the survival is inactive: 97%.

Regarding `O=C1C(Cc2ccccc2)S/C(=N/N=C/c2ccco2)N1c1ccccc1` (configuration not stated), the survival is inactive: 91%.

`Cc1ccc(Cc2cnc(NC(=O)C3Cc4ccc(C)cc4C(=O)O3)s2)cc1` (configuration not stated): the survival is inactive: 91%.

Turning to `COC(=O)c1cnn(-c2ccc(C(=O)Nc3ccc(OC(F)(F)F)cc3)cc2)c1N`, the survival was active: 25%.

Take `CCc1ccc(NC(=O)CN2CCSc3ccc(S(=O)(=O)N4CCCC4)cc32)cc1`: the survival is active: -4%.

As to `COc1ccc(C(CNC(=O)c2cccc([N+](=O)[O-])c2)N2CCOCC2)cc1` (configuration not stated), the survival was inactive: 76%.

For the molecule `COc1ccc(CCNc2nc(-c3ccc(F)cc3)cc(C(F)(F)F)n2)cc1OC`, the survival was inactive: 109%.

For `Cc1nn(CCCC(=O)NCc2cccc(Cl)c2)c(=O)c2c1sc1ccccc12`, the survival was inactive: 78%.

As to `Cc1nnc(NC(=O)CSc2nnc3c(n2)[nH]c2ccccc23)s1`, the survival was inactive: 61%.

For `Cc1cccc(N2CCN(CCCNC(=O)c3sc4ncccc4c3-n3cccc3)CC2C)c1` (configuration not stated), the survival was inactive: 105%.

For `CCOC(=O)c1ccccc1NC(=O)c1ccco1`, the survival was inactive: 97%.

`O=c1n(Cc2ccc(F)cc2)nc2n1-c1cc(Cl)ccc1OC2`: the survival is inactive: 82%.

Turning to `Cc1ccc(F)cc1NC(=O)c1ccc(Cn2nc(N3CCN(c4ccccc4)CC3)ccc2=O)o1`, the survival was inactive: 117%.

On to `CCN(C(=O)c1cccn(Cc2ccccc2C)c1=O)c1ccccc1`, for which the survival is inactive: 89%.

In the case of `CN(C)c1ccc(NC(=O)CN2C(=O)c3ccccc3Sc3ccc(C(=O)N4CCCC4)cc32)cc1`, the survival was active: -2%.

For `Cc1ccc(-c2nc(SCC(=O)N3CCc4ccccc43)c3c(=O)n(C)c(=O)n(C)c3n2)cc1`, the survival is inactive: 76%.
